The labels stand for the following.
B1: PhoQ; a variant is named by its letters at X, in order, P23837 (parent)
chain: MKKLLRLFFPLSLRVRFLLATAAVVLVLSLAYGMVALIGYSVSFDKTTFRLLRGESNLFYTLAKWENNKLHVELPENIDKQSPTMTLIYDENGQLLWAQRDVPWLMKMIQPDWLKSNGFHEIEADVNDTSLLLSGDHSIQQQLQEVREDDDDAEMTHSVAVNVYPATSRMPKLTIVVVDTIPVELKSSYMVWSWFIYVLSANLLLVIPLLWVAAWWSLRPIEALAKEVRELEEHNRELLNPATTRELTSLVRNLNRLLKSERERYDKYRTTLTDLTHSLKTPLXXLQXXLRSLRSEKMSVSDAEPVMLEQISRISQQIGYYLHRASMRGGTLLSRELHPVAPLLDNLTSALNKVYQRKGVNISLDISPEISFVGEQNDFVEVMGNVLDNACKYCLEFVEISARQTDEHLYIVVEDDGPGIPLSKREVIFDRGQRVDTLRPGQGVGLAVAREITEQYEGKIVAGESMLGGARMEVIFGRQHSAPKDE

The other results are listed elsewhere or left out.

The assay covers variants of B1. Put plainly: enrichment ratio after two sorts for PhoP signalling (ratio (wild type AVST 3.29)); higher = more functional. Particulars: with PhoP (E. coli).
MFTI: the enrichment ratio is no more than 0.25.
For AEFV, the enrichment ratio was determined as 1.65.
Regarding STPF, the enrichment ratio was no more than 0.25.
On to YQSR, for which the enrichment ratio was no more than 0.25.
SNAM: the enrichment ratio was 13.5.
Regarding KHFQ, the enrichment ratio is no more than 0.25.
EIKK: the enrichment ratio was no more than 0.25.
As for YTWI, the enrichment ratio is no more than 0.25.
The value for PGAN was no more than 0.25; that for GAPC was no more than 0.25.
To YYQW belongs no more than 0.25; to SIWS, no more than 0.25; to RWYY, no more than 0.25.
Take IDFL: the enrichment ratio is no more than 0.25.
With YLPD, the enrichment ratio was no more than 0.25.
Consider YRMC, for which the enrichment ratio was no more than 0.25.
To TQSP belongs no more than 0.25; to YQAF, no more than 0.25.
The value for ERAK was no more than 0.25.
Regarding KLLS, the enrichment ratio is no more than 0.25.
On to HQGS, for which the enrichment ratio was no more than 0.25.
To WTGV belongs no more than 0.25; to DIRG, no more than 0.25; to DLLT, no more than 0.25.
With GALT, the enrichment ratio was determined as 2.47.
To MLTR belongs no more than 0.25; to MNGC, no more than 0.25; to SSCG, 12.6.
Regarding QTNY, the enrichment ratio amounted to 17.5.
The value for FHFV was no more than 0.25.
For the variant HHAD, the enrichment ratio was no more than 0.25.
For EYIH, the enrichment ratio is no more than 0.25.
Take AESD: the enrichment ratio was determined as 0.253.
On to TDGD, for which the enrichment ratio is no more than 0.25.
In the case of MDMD, the enrichment ratio is no more than 0.25.
SGCK: the enrichment ratio amounted to 8.85.
As for VCQV, the enrichment ratio was no more than 0.25.
WFEH: the enrichment ratio is no more than 0.25.
With AVHK, the enrichment ratio was no more than 0.25.
The value for EAYP was no more than 0.25.
Take WPQS: the enrichment ratio was no more than 0.25.
With WKST, the enrichment ratio was no more than 0.25.
Take NDQS: the enrichment ratio is no more than 0.25.
In the case of MEGV, the enrichment ratio was no more than 0.25.
IRIA: the enrichment ratio was no more than 0.25.
For FISY, the enrichment ratio is no more than 0.25.
To WRVR belongs no more than 0.25.
With NWGL, the enrichment ratio was no more than 0.25.
Consider KEGA, for which the enrichment ratio was no more than 0.25.
To TFEM belongs no more than 0.25; to LMIN, no more than 0.25.
As for VQVM, the enrichment ratio was no more than 0.25.
FESI: the enrichment ratio was no more than 0.25.
For DKVN, the enrichment ratio was no more than 0.25.
Take CYFQ: the enrichment ratio is no more than 0.25.
The value for IAHI was no more than 0.25; that for QCCY was no more than 0.25; that for EQAW was no more than 0.25.
With RTWR, the enrichment ratio is no more than 0.25.
Regarding HRSC, the enrichment ratio was no more than 0.25.
With LWKV, the enrichment ratio is no more than 0.25.
In the case of VFDP, the enrichment ratio was no more than 0.25.
Regarding PSPN, the enrichment ratio was no more than 0.25.
As to SSPH, the enrichment ratio was no more than 0.25.
Regarding CSHF, the enrichment ratio was no more than 0.25.
For the variant DGIK, the enrichment ratio was no more than 0.25.
Turning to KHFM, the enrichment ratio was no more than 0.25.
Turning to YNPM, the enrichment ratio was no more than 0.25.
With SRQC, the enrichment ratio is no more than 0.25.
Turning to IHHA, the enrichment ratio was no more than 0.25.
Consider HYNV, for which the enrichment ratio is no more than 0.25.
The value for GKQV was no more than 0.25.
In the case of DVTY, the enrichment ratio is no more than 0.25.
Consider HRAK, for which the enrichment ratio is no more than 0.25.
For the variant WCMY, the enrichment ratio is no more than 0.25.
On to MKWV, for which the enrichment ratio was no more than 0.25.
With LVCN, the enrichment ratio is no more than 0.25.
To DWHL belongs no more than 0.25.
HIRH: the enrichment ratio is no more than 0.25.
On to DRDA, for which the enrichment ratio is no more than 0.25.
As to MATM, the enrichment ratio was found to be 22.6.
For the variant TIRT, the enrichment ratio was no more than 0.25.
For KSEE, the enrichment ratio was no more than 0.25.
As to KPHE, the enrichment ratio is no more than 0.25.
As for SGEV, the enrichment ratio is no more than 0.25.
Regarding EVML, the enrichment ratio is no more than 0.25.
As for DQDP, the enrichment ratio was no more than 0.25.
TYKE: the enrichment ratio is no more than 0.25.
Take SCLP: the enrichment ratio was no more than 0.25.
To TLYQ belongs 0.833.
As for KPPM, the enrichment ratio was no more than 0.25.
In the case of HSLY, the enrichment ratio was no more than 0.25.
For the variant TVNR, the enrichment ratio worked out at 4.75.
To SCAL belongs 7.78; to WLRI, no more than 0.25.
Take PLDI: the enrichment ratio is no more than 0.25.
Take SKWA: the enrichment ratio was no more than 0.25.
The value for FSAA was no more than 0.25; that for VNDP was no more than 0.25; that for TDFK was no more than 0.25.
As to YADS, the enrichment ratio was no more than 0.25.
As to QRYY, the enrichment ratio was no more than 0.25.
On to VDTD, for which the enrichment ratio is no more than 0.25.
As to TSMM, the enrichment ratio was determined as 21.5.
With KPSN, the enrichment ratio was no more than 0.25.
Turning to HVKT, the enrichment ratio is no more than 0.25.
As for QEVS, the enrichment ratio is no more than 0.25.
On to MSWM, for which the enrichment ratio worked out at 23.7.
In the case of GIHS, the enrichment ratio was no more than 0.25.
On to SGKK, for which the enrichment ratio is no more than 0.25.
For the variant RRRQ, the enrichment ratio is no more than 0.25.
For the variant DCPV, the enrichment ratio is no more than 0.25.
As to TLTE, the enrichment ratio was no more than 0.25.
For THIW, the enrichment ratio was no more than 0.25.
With LWSN, the enrichment ratio is no more than 0.25.
In the case of NEWN, the enrichment ratio was no more than 0.25.
The value for VQFN was no more than 0.25; that for GVLY was 3.39; that for DDQK was no more than 0.25.
Take MTIC: the enrichment ratio was no more than 0.25.
Regarding SHLE, the enrichment ratio came to 8.54.
For HYAF, the enrichment ratio was no more than 0.25.
As for SSYD, the enrichment ratio is no more than 0.25.
To MCLD belongs no more than 0.25; to DHFY, no more than 0.25; to QCRW, no more than 0.25.
Turning to HAHS, the enrichment ratio was no more than 0.25.
To TTCL belongs 18.5.
To EAVK belongs no more than 0.25.
Take IVPL: the enrichment ratio was no more than 0.25.
Turning to IEYC, the enrichment ratio was no more than 0.25.
PPCR: the enrichment ratio is no more than 0.25.
Consider DVLE, for which the enrichment ratio was no more than 0.25.
To AHNH belongs 3.12.
To FASK belongs no more than 0.25.
Consider EKCA, for which the enrichment ratio is no more than 0.25.
As to WVSM, the enrichment ratio was no more than 0.25.
For the variant PRNT, the enrichment ratio was no more than 0.25.
As for YRTY, the enrichment ratio is no more than 0.25.
As to LTVI, the enrichment ratio was no more than 0.25.
For QWSA, the enrichment ratio is no more than 0.25.
For GPSW, the enrichment ratio was no more than 0.25.
In the case of NEQG, the enrichment ratio is no more than 0.25.
Turning to LSEI, the enrichment ratio is no more than 0.25.
For the variant NHKP, the enrichment ratio is no more than 0.25.
With PWFG, the enrichment ratio is no more than 0.25.
Turning to ALYQ, the enrichment ratio is no more than 0.25.
As to FWRR, the enrichment ratio was no more than 0.25.
To RFMK belongs no more than 0.25; to VNTN, no more than 0.25.
Take AGTD: the enrichment ratio was no more than 0.25.
With TICD, the enrichment ratio was no more than 0.25.
Regarding NSEC, the enrichment ratio was no more than 0.25.

The values above are taken from a collection of fitness landscapes (doi:10.1126/science.1257360).
